# Results taken from the supplement of paper PMC8728848.
# Some of the results follow.
# Experiments:
# Assay in all cases: glycan array binding signal (z-score within array); higher = stronger binding
# Details in all cases: glycan notation: IUPAC condensed, linker removed
# Gal(a1-6)Glc = target: Gal(a1-6)Glc
# Outline: (§1)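 From the Consortium for Functional Glycomics database, 3228 arrays were curated, keeping only those whose protein sequence was available. Binding is given as a within-array Z-score averaged across arrays sharing a protein sequence and across linkers. Negative Z-scores can be read as non-binding.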
# Gal(b1-2)Gal = target: Gal(b1-2)Gal
# Outline: as §1
# Gal(b1-3)Gal = target: Gal(b1-3)Gal
# Outline: as §1
# Gal(b1-3)GalNAc = target: Gal(b1-3)GalNAc
# Outline: as §1
# [1] = target: Gal(b1-3)GalNAc(b1-4)Gal(b1-4)Glc
# Outline: as §1
# [2] = target: Gal(b1-3)GalNAc(b1-4)[Neu5Ac(a2-3)]Gal(b1-4)Glc
# Outline: as §1
# Gal(b1-3)GlcNAc = target: Gal(b1-3)GlcNAc
# Outline: as §1
# [3] = target: Gal(b1-3)GlcNAc(b1-3)Gal(b1-4)Glc
# Outline: as §1
# [4] = target: Gal(b1-3)[Fuc(a1-4)]GlcNAc
# Outline: as §1
# [5] = target: Gal(b1-3)[GlcNAc(b1-6)]GalNAc
# Outline: as §1
# [6] = target: Gal(b1-3)[Neu5Ac(a2-6)]GalNAc
# Outline: as §1
# [7] = target: Gal(b1-3)[Neu5Ac(a2-6)]GlcNAc(b1-4)Gal(b1-4)Glc
# Outline: as §1
# [8] = target: Gal(b1-3)[Neu5Ac(b2-6)]GalNAc
# Outline: as §1
# [9] = target: Gal(b1-4)GalNAc(a1-3)[Fuc(a1-2)]Gal(b1-4)GlcNAc
# Outline: as §1
# Gal(b1-4)Glc = target: Gal(b1-4)Glc
# Outline: as §1
# Gal(b1-4)Glc6S = target: Gal(b1-4)Glc6S
# Outline: as §1
# Gal(b1-4)GlcNAc = target: Gal(b1-4)GlcNAc
# Outline: as §1
# [10] = target: Gal(b1-4)GlcNAc(b1-3)Gal(b1-4)Glc
# Outline: as §1
# [11] = target: Gal(b1-4)GlcNAc(b1-3)Gal(b1-4)GlcNAc
# Outline: as §1
# [12] = target: Gal(b1-4)GlcNAc(b1-3)Gal(b1-4)GlcNAc(b1-3)Gal(b1-4)GlcNAc
# Outline: as §1
# [13] = target: Gal(b1-4)GlcNAc(b1-3)Gal(b1-4)[Fuc(a1-3)]GlcNAc(b1-3)Gal(b1-4)[Fuc(a1-3)]GlcNAc
# Outline: as §1
# [14] = target: Gal(b1-4)GlcNAc(b1-3)GalNAc
# Outline: as §1
# [15] = target: Gal(b1-4)GlcNAc(b1-3)[Gal(b1-4)GlcNAc(b1-6)]GalNAc
# Outline: as §1
# [16] = target: Gal(b1-4)GlcNAc(b1-6)GalNAc
# Outline: as §1
# [17] = target: Gal(b1-4)GlcNAc(b1-6)[Gal(b1-3)]GalNAc
# Outline: as §1
# Gal3S(b1-3)GalNAc = target: Gal3S(b1-3)GalNAc
# Outline: as §1
# Gal3S(b1-3)GlcNAc = target: Gal3S(b1-3)GlcNAc
# Outline: as §1
# [18] = target: Gal3S(b1-3)[Fuc(a1-4)]GlcNAc
# Outline: as §1
# Gal3S(b1-4)Glc = target: Gal3S(b1-4)Glc
# Outline: as §1
# Gal3S(b1-4)Glc6S = target: Gal3S(b1-4)Glc6S
# Outline: as §1
# Gal3S(b1-4)GlcNAc = target: Gal3S(b1-4)GlcNAc
# Outline: as §1
# Gal4S(b1-4)GlcNAc = target: Gal4S(b1-4)GlcNAc
# Outline: as §1
# Gal6S(b1-4)Glc = target: Gal6S(b1-4)Glc
# Outline: as §1
# Gal6S(b1-4)Glc6S = target: Gal6S(b1-4)Glc6S
# Outline: as §1
# GalNAc(a1-3)Gal = target: GalNAc(a1-3)Gal
# Outline: as §1
# GalNAc(a1-3)GalNAc = target: GalNAc(a1-3)GalNAc
# Outline: as §1
binder,measurement,setting,value
"RegIIIgamma (Mus musculus), O09049 (protein) MLPRITITIMSWMLLSCLMLLSQVQGEVAKKDAPSSRSSCPKGSRAYGSYCYALFSVSKNWYDADMACQKRPSGHLVSVLSGAEASFLSSMIKSSGNSGQYVWIGLHDPTLGYEPNRGGWEWSNADVMNYINWETNPSSSSGNHCGTLSRASGFLKWRENYCNLELPYVCKFKA",glycan array binding signal (z-score),Gal(a1-6)Glc,-0.148
same,glycan array binding signal (z-score),Gal(b1-2)Gal,-0.267
same,glycan array binding signal (z-score),Gal(b1-3)Gal,-0.237
same,glycan array binding signal (z-score),Gal(b1-3)GalNAc,-0.26
same,glycan array binding signal (z-score),[1],-0.258
same,glycan array binding signal (z-score),[2],-0.196
same,glycan array binding signal (z-score),Gal(b1-3)GlcNAc,-0.265
same,glycan array binding signal (z-score),[3],-0.266
same,glycan array binding signal (z-score),[4],-0.282
same,glycan array binding signal (z-score),[5],-0.278
same,glycan array binding signal (z-score),[6],-0.252
same,glycan array binding signal (z-score),[7],-0.134
same,glycan array binding signal (z-score),[8],-0.165
same,glycan array binding signal (z-score),[9],-0.228
same,glycan array binding signal (z-score),Gal(b1-4)Glc,-0.171
same,glycan array binding signal (z-score),Gal(b1-4)Glc6S,-0.126
same,glycan array binding signal (z-score),Gal(b1-4)GlcNAc,-0.268
same,glycan array binding signal (z-score),[10],-0.239
same,glycan array binding signal (z-score),[11],-0.279
same,glycan array binding signal (z-score),[12],-0.17
same,glycan array binding signal (z-score),[13],-0.183
same,glycan array binding signal (z-score),[14],-0.256
same,glycan array binding signal (z-score),[15],-0.284
same,glycan array binding signal (z-score),[16],-0.276
same,glycan array binding signal (z-score),[17],-0.279
same,glycan array binding signal (z-score),Gal3S(b1-3)GalNAc,-0.134
same,glycan array binding signal (z-score),Gal3S(b1-3)GlcNAc,-0.183
same,glycan array binding signal (z-score),[18],-0.14
same,glycan array binding signal (z-score),Gal3S(b1-4)Glc,-0.106
same,glycan array binding signal (z-score),Gal3S(b1-4)Glc6S,0.136
same,glycan array binding signal (z-score),Gal3S(b1-4)GlcNAc,-0.128
same,glycan array binding signal (z-score),Gal4S(b1-4)GlcNAc,1.17
same,glycan array binding signal (z-score),Gal6S(b1-4)Glc,-0.12
same,glycan array binding signal (z-score),Gal6S(b1-4)Glc6S,0.13
same,glycan array binding signal (z-score),GalNAc(a1-3)Gal,-0.276
same,glycan array binding signal (z-score),GalNAc(a1-3)GalNAc,-0.261
